# B1: IL13-10M Fc (J) (Fc fusion)
# chain 1: [sequence of about 120 residues not given][sequence of about 250 residues not given]
# chain 2: SPGQGTQSENSCTHFPGNLPNMLRDLRDAFSRVKTFFQMKDQLDNLLLKESLLEDFKGYLGCQALSEMIQFYLEEVMPQAENQDPDIKAHVNSLGENLKTLRLRLRRCHRFLPCENGGGSGGKSKAVEQVKNAFNKLQEKGIYKAMSEFDIFINYIEAYMTMKIRNTGSGGGGSGTCPPCPAPEAAGGPSVFLFPPKPKDTLMISRTPEVTCVVVDVSHEDPEVKFNWYVDGVEVHNAKTKPREEQYNSTYRVVSVLTVLHQDWLNGKEYKCKVSNKALPAPIEKTISKAKGQPREPQVYTLPPSRDELTKNQVSLTCLVKGFYPSDIAVEWESNGQPENNYDTTPPVLDSDGSFFLYSDLTVDKSRWQQGNVFSCSVMHEALHNHYTQKSLSLSPGK
# B2: IL4-10M Fc (S) (Fc fusion)
# chain 1: HKCDITLQEIIKTLNSLTEQKTLCTELTVTDIFAASKNTTEKETFCRAATVLRQFYSHHEKDTRCLGATAQQFHRHKQLIRFLKRLDRNLWGLAGLNSCPVKEANQSTLENFLERLKTIMREKYSKCSSGSGGGGSGTCPPCPAPELLGGPSVFLFPPKPKDTLMISRTPEVTCVVVDVSHEDPEVKFNWYVDGVEVHNAKTKPREEQYNSTYRVVSVLTVLHQDWLNGKEYKCKVSNKALPAPIEKTISKAKGQPREPQVCTLPPSRDELTKNQVSLSCAVKGFYPSDIAVEWESNGQPENNYKTTPPVLDSDGSFFLVSKLTVDKSRWQQGNVFSCSVMHEALHNHYTQKSLSLSPGK
# chain 2: KSKAVEQVKNAFNKLQEKGIYKAMSEFDIFINYIEAYMTMKIRNGSGGGGSGTSPGQGTQSENSCTHFPGNLPNMLRDLRDAFSRVKTFFQMKDQLDNLLLKESLLEDFKGYLGCQALSEMIQFYLEEVMPQAENQDPDIKAHVNSLGENLKTLRLRLRRCHRFLPCENGSGGGGSG[sequence of human IgG1 Fc with changes not given]
# B3: IL10M-Fc (J) (Fc fusion)
# chain: SPGQGTQSENSCTHFPGNLPNMLRDLRDAFSRVKTFFQMKDQLDNLLLKESLLEDFKGYLGCQALSEMIQFYLEEVMPQAENQDPDIKAHVNSLGENLKTLRLRLRRCHRFLPCENGGGSGGKSKAVEQVKNAFNKLQEKGIYKAMSEFDIFINYIEAYMTMKIRNGSGGGGSG[sequence of human IgG1 Fc with changes not given]
# B4: IL4-10M Fc (J) (Fc fusion)
# chain 1: B2 chain 1
# chain 2: SPGQGTQSENSCTHFPGNLPNMLRDLRDAFSRVKTFFQMKDQLDNLLLKESLLEDFKGYLGCQALSEMIQFYLEEVMPQAENQDPDIKAHVNSLGENLKTLRLRLRRCHRFLPCENGGGSGGKSKAVEQVKNAFNKLQEKGIYKAMSEFDIFINYIEAYMTMKIRNGSGGGGSG[sequence of human IgG1 Fc with changes not given]
# Tests used:
# Assay in all cases: cell-based or functional assay
# hIL10RA/hIL13Ra1 = hIL10RA/hIL13Ra1 (human, UniProt Q13651 22-256; P78552 22-367)
# hIL10RA/hIL13Ra1, sequence (P78552 22-367): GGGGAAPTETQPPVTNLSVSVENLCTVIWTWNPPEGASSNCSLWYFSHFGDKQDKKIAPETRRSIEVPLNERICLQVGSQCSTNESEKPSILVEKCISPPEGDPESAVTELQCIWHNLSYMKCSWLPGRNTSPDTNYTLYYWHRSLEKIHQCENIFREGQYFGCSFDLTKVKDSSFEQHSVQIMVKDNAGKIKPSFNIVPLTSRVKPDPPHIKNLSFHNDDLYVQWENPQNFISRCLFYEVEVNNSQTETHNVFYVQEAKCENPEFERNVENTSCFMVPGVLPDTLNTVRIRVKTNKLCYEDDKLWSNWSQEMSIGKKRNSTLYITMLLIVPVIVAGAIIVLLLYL
# hIL10RA/hIL13Ra2 = hIL10RA/hIL13Ra2 (human, UniProt Q13651 22-256; Q14627 27-363)
# hIL10RA/hIL13Ra2, sequence (Q14627 27-363): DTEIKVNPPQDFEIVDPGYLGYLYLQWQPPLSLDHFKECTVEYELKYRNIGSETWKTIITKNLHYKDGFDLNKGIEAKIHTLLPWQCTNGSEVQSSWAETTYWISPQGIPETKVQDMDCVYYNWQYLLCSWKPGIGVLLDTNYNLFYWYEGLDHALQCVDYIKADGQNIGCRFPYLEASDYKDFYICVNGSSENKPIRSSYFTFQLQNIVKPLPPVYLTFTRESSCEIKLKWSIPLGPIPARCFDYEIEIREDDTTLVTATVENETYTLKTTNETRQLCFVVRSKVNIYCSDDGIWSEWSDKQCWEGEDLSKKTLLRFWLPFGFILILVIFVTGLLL
# IL10 receptor = molecular target: T1, IL10 receptor (UniProt Q13651 22-578; Q08334 20-325, limits assumed)
# T1 sequence (looked up) 1: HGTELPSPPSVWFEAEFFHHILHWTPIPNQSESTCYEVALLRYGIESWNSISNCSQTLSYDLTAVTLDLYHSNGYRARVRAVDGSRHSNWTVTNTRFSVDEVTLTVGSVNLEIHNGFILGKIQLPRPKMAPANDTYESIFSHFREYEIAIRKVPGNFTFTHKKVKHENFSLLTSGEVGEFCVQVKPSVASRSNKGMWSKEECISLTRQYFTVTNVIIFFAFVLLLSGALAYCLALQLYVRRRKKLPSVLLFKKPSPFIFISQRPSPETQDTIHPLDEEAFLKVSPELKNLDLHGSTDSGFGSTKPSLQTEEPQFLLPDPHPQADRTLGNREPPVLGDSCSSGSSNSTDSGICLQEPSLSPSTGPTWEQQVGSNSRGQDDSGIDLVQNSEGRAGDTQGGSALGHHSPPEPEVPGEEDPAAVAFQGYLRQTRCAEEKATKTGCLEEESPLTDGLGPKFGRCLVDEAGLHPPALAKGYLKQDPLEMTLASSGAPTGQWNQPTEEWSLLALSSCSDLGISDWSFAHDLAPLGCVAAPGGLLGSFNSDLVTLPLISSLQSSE
# T1 sequence (looked up) 2: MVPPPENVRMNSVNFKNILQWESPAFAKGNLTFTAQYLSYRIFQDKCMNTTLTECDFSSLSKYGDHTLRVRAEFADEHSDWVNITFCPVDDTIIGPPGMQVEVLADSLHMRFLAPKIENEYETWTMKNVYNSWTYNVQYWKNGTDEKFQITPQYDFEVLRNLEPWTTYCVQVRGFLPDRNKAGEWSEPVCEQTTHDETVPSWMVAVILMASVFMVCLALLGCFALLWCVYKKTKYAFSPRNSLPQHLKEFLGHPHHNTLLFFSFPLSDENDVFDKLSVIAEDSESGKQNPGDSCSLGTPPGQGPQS
Binder,Heterologous clustering hIL10RA/hIL13Ra1 EC50 (NanoBiT enzyme complementation) (hIL10RA/hIL13Ra1),Heterologous clustering hIL10RA/hIL13Ra2 EC50 (NanoBiT enzyme complementation) (hIL10RA/hIL13Ra2),HEK-Blue IL10 EC50 (STAT-3 mediated SEAP expression) (IL10 receptor)
B1,13900 pM,1490 pM,–
B2,–,–,265 pM
B3,–,–,80.8 pM
B4,–,–,544 pM

# From US20260132178A1 (SYNERKINE PHARMA B V, published 2026)
